Here are results for 87 molecules from paper PMC4336329 (PLoS ONE, 2015).

Out of some 310,000 compounds screened, about 2,200 (0.71%) showed an effect of 50% or more. Effects have a minus sign here. The list shows a part of the results.

The target of this assay is human ether-à-go-go-related gene (hERG) potassium channel (human, UniProt Q12809). Briefly: primary screen, population patch clamp on CHO cells stably expressing hERG.
human ether-à-go-go-related gene (hERG) potassium channel, sequence (Q12809 whole entry, looked up): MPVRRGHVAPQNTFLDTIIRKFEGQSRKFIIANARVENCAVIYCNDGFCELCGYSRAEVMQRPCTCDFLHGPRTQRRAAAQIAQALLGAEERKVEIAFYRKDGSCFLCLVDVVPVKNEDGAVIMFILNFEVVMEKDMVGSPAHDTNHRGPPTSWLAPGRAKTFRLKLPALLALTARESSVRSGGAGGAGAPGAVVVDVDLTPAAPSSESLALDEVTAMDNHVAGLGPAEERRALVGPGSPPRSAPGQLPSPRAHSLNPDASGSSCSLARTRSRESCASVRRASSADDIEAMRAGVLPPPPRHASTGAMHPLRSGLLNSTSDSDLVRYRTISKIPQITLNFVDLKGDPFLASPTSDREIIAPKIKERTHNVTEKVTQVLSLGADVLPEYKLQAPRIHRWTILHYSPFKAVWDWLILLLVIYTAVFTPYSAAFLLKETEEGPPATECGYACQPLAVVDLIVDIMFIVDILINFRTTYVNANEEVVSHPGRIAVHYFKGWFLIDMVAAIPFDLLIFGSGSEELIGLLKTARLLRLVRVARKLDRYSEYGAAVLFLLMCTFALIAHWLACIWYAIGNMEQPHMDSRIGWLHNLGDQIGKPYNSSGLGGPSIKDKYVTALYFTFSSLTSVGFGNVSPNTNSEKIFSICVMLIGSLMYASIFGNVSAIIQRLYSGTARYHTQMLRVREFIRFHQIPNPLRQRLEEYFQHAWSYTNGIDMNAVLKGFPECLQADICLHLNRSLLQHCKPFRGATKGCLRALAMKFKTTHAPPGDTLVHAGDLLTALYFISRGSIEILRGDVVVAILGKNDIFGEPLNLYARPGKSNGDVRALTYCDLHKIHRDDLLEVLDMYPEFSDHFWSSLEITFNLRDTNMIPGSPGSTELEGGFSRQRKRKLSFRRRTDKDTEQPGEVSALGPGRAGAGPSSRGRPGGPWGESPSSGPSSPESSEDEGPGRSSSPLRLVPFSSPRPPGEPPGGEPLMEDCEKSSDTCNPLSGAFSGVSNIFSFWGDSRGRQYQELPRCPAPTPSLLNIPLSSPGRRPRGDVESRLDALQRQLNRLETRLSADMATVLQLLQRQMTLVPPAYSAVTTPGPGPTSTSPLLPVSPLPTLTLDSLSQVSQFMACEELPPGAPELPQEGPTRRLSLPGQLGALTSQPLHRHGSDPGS
On to `CC(C)n1cc(CN2CCCC(CNS(=O)(=O)c3cccc4cccnc34)C2)cn1` (stereo not drawn), for which the “hERG current change (%, negative = inhibition) at 1uM” value stood at 5.26%. Turning to `CN(C)c1ccc2c3c(ccc(N(C)C)c13)C(=O)OC2`, the “hERG current change (%, negative = inhibition) at 1uM” value is -27.8%. `COc1ccc(OC)c(NC(=O)CNC(=O)Cn2cnc3ccccc3c2=O)c1`: the “hERG current change (%, negative = inhibition) at 1uM” value is on record as 7.41%. On to `Cc1ccc(C2=NS(=O)(=O)N(C)C(C(=O)NCc3ccccn3)=C2)cc1`, for which the “hERG current change (%, negative = inhibition) at 1uM” value is given as -1.95%. As for `Cn1c(SCc2ccc(Cl)cc2Cl)nc(C(F)(F)F)cc1=O`, the “hERG current change (%, negative = inhibition) at 1uM” value stood at 4.82%. With `CC(=O)OC(C(=O)NC1CCCCC1)c1cccc(C)c1` (stereo not drawn), the “hERG current change (%, negative = inhibition) at 1uM” value is 9.43%. The value for `CCCCN1C[C@H](Cc2ccccc2)[C@@H](CC(=O)NCc2ccc(OC)cc2)C1=O` was -8.73%; that for `COc1cc(/C=N/N(C)C)ccc1OC(=O)c1ccco1` was 19.7%; that for `CNC(C)CCC=C(C)C.O=C(O)C(O)C(O)C(O)C(O)C(=O)O` (stereo not drawn) was 13.4%. As for `COCCNC(=O)Cn1c(=O)n(CCCCCC(=O)Nc2ccccc2)c(=O)c2sccc21`, the “hERG current change (%, negative = inhibition) at 1uM” value was found to be 1.5%. The value for `O=C(NCCCN1CCOCC1)c1ccc(N2CCCC2)c([N+](=O)[O-])c1` was 4.41%. As for `CC(C(=O)NC(C)(C)C)N(C(=O)CS(=O)CC(=O)Nc1ccc(F)cc1)c1ccccc1F` (stereo not drawn), the “hERG current change (%, negative = inhibition) at 1uM” value worked out at 12.3%. The value for `c1ccc(CSc2nnc(-c3ccco3)o2)cc1` was 8.9%; that for `CCc1cccc(NC(=O)CCc2c(C)nn(-c3ccc(N4CCCCC4)nn3)c2C)c1` was -3.62%. In the case of `COc1ccc(CNn2c(C)nc3ccccc3c2=O)cc1`, the “hERG current change (%, negative = inhibition) at 1uM” value is on record as 11.7%. On to `C/C(=N/O)c1ccc2ccc3ccccc3c2c1`, for which the “hERG current change (%, negative = inhibition) at 1uM” value was found to be 10.7%. The value for `CC(C(=O)O/N=C(\N)c1cccnc1)c1ccc([N+](=O)[O-])cc1` (stereo not drawn) was -0.629%; that for `C/C(CC(=O)Nc1ccc(N(C)C)cc1)=N\NC(=O)c1ccc(Cl)cc1Cl` was 8.35%; that for `O=C(COc1ccc(Cl)cc1)Nc1nnc(C2=COCCO2)o1` was 4.29%. Regarding `CCc1ccc[n+](-c2nc([O-])sc2C=O)c1`, the “hERG current change (%, negative = inhibition) at 1uM” value was 13.1%.

Regarding `O=C(O)CCCC(=O)N(Cc1ccccc1)Cc1ccccc1`, the “hERG current change (%, negative = inhibition) at 1uM” value was 24.4%.

`Cc1ccc(NC(=O)c2oc3ccc(S(=O)(=O)N4CCOCC4)cc3c2C)c(C)c1`: the “hERG current change (%, negative = inhibition) at 1uM” value is 9.25%. For `CSc1ncccc1C(=O)OCC(=O)Nc1ccc2c(c1)OCO2`, the “hERG current change (%, negative = inhibition) at 1uM” value turned out to be 16.5%. Regarding `COc1ccc(-c2csc3nc(C)n(-n4cccc4)c(=O)c23)cc1`, the “hERG current change (%, negative = inhibition) at 1uM” value amounted to 4.6%. Turning to `CCCC(OC(=O)CN1C(=O)COc2ccccc21)C(=O)NC1CCCC1` (stereo not drawn), the “hERG current change (%, negative = inhibition) at 1uM” value turned out to be 1.27%. On to `COc1ccc(NC(=O)c2cc(-c3ccc(OC)c(OC)c3)nc3ccccc23)c(OC)c1`, for which the “hERG current change (%, negative = inhibition) at 1uM” value is recorded as 11.9%. The value for `COc1ccccc1C(=O)NCC(=O)NC(C)CCc1ccccc1` (stereo not drawn) was 10.1%; that for `CCc1ccc(NC(=O)CN(C(=O)N2CCN(CC)CC2)S(=O)(=O)c2ccc(C)cc2)cc1` was 16%. For `COc1ccc(NC(=O)CN(C)C(=O)CSc2ccc3c(c2)OCCO3)cc1`, the “hERG current change (%, negative = inhibition) at 1uM” value is reported as 8.59%. `CCN(CC)S(=O)(=O)c1ccc(NC(=O)CCNC(=O)c2ccccc2)cc1`: the “hERG current change (%, negative = inhibition) at 1uM” value is 8.18%.

Turning to `Cc1cccc(NC(=O)c2cc(S(=O)(=O)N3CCc4ccccc43)cn2C)c1`, the “hERG current change (%, negative = inhibition) at 1uM” value was determined as 14.3%.

On to `CN(C)CCCNC(=O)C(=O)Nc1ccc2c(c1)N(S(=O)(=O)c1cccs1)CCC2`, for which the “hERG current change (%, negative = inhibition) at 1uM” value was 11.3%. Under `O=C(CCc1nc2ccccc2c(=O)[nH]1)NNC(=O)COc1cccc(F)c1` stands 5.35%; under `O=C1NNC(c2ccccc2)=N/C1=C\c1ccco1`, 9.06%. As to `Cc1ccc(NC(=O)NCC2CCN(Cc3cccc(Cl)c3)CC2)cc1Cl`, the “hERG current change (%, negative = inhibition) at 1uM” value is 2.87%. The value for `O=C(CCl)Nc1cccc(-c2cnc3ccccc3n2)c1` was 3.28%; that for `CCOC(=O)N1CCc2c(sc3c2c(=O)n(-c2ccc(CC)cc2)c(=O)n3CC(=O)NCC2CCCO2)C1` (stereo not drawn) was 18.3%.

For `Cc1cc2c(cc1C)/C(=C\C(N)=O)NC(C)(C)C2`, the “hERG current change (%, negative = inhibition) at 1uM” value amounted to 1.14%. Take `Cc1nc2ccccc2c(=O)n1/N=C/c1cccs1`: the “hERG current change (%, negative = inhibition) at 1uM” value came to 7.62%. The value for `CCOC(=O)c1c(C)nc2sc3c(=O)n(-c4ccc(OC)cc4)nnc3c2c1-c1ccc(OC)cc1` was 6.27%; that for `O=c1c2[nH]c3cccc(Cl)c3c2ncn1CC1CCCO1` (stereo not drawn) was 6.28%; that for `CCOC(=O)/C=C1\SCC(=O)N1CC(=O)NC(c1ccccc1)c1ccccc1` was 5.26%. Take `C#CCOCCOCCOCCNc1nc(N2CCN(C(=O)CCCCCCCCCCNC(=O)[C@@H](CCC(=O)O)n3cc(CCCCCN)nn3)CC2)nc(N2CCN(C(=O)CCCCCCCCCCNC(=O)[C@H](CO)n3cc(CCCSC)nn3)CC2)n1`: the “hERG current change (%, negative = inhibition) at 1uM” value was determined as 2.2%. `CCCCNC(=O)OC1CCS(=O)(=O)C1` (stereo not drawn): the “hERG current change (%, negative = inhibition) at 1uM” value stood at 10.9%. With `Cc1ccc(/C=N\NC(=O)c2cc(OCC(F)(F)F)ccc2OCC(F)(F)F)cc1`, the “hERG current change (%, negative = inhibition) at 1uM” value was found to be 13.4%. With `COc1ccc2c(c1)C(=NO)c1cc(OC)ccc1-2`, the “hERG current change (%, negative = inhibition) at 1uM” value amounted to 9.68%. The value for `Cc1ccc(C(=O)Nc2ncnc3sc4c(c23)CCCCC4)cc1` was 2.44%.

Turning to `Cc1cc(NC(=O)CCC(=O)N(Cc2ccccc2)C(C(=O)NC2CCCC2)c2ccco2)no1` (stereo not drawn), the “hERG current change (%, negative = inhibition) at 1uM” value is recorded as 1.62%.

Turning to `CCOC(=O)c1csc(-n2nc(C)cc2C(F)(F)F)n1`, the “hERG current change (%, negative = inhibition) at 1uM” value is recorded as 5.13%. As for `COc1ccc(OC)c(C(c2c(O)c3ccccc3oc2=O)c2c(C)n(C)n(-c3ccccc3)c2=O)c1` (stereo not drawn), the “hERG current change (%, negative = inhibition) at 1uM” value is 7.07%. The value for `COc1c(OC)c2[nH]c(=O)cc3c4ccccc4n(c1=O)c23` was -2.06%.

On to `C=CCNC(N)=S`, for which the “hERG current change (%, negative = inhibition) at 1uM” value is on record as 17.7%. The value for `Cc1nc(N)sc1C(=O)N/N=C/c1cccnc1` was 16.1%; that for `Cc1ccc(OCCOc2cccc(C=C3C(=O)NC(=O)NC3=O)c2)cc1` was 17.3%; that for `O=C(CN1CCCC1)Nc1ccc(Cl)cc1C(=O)c1ccccc1.O=C(O)C(=O)O` was 0.588%.

In the case of `CC(Cc1cccnc1)NC(=O)CCc1nnc(-c2ccccc2)o1` (stereo not drawn), the “hERG current change (%, negative = inhibition) at 1uM” value was determined as 2.17%. For the molecule `C[C@@H](CO)NC(=O)c1ccc2c3n(nc2c1)-c1ccccc1CO3`, the “hERG current change (%, negative = inhibition) at 1uM” value stood at 9.04%. `Cc1ccc(C)c(OCC(=O)N2CCOCC2)c1`: the “hERG current change (%, negative = inhibition) at 1uM” value was 8.83%. `CCOc1ccc2[nH]c(=O)c(CN(CCN3CCCC3)C(=S)Nc3ccccc3OC)cc2c1`: the “hERG current change (%, negative = inhibition) at 1uM” value was -16.4%. In the case of `COC(=O)c1nc2nc(-c3cccs3)cc(C(F)(F)F)n2n1`, the “hERG current change (%, negative = inhibition) at 1uM” value came out at 11.2%.

With `COc1ccccc1N1CCN(S(=O)(=O)c2cc(Br)cnc2N)CC1`, the “hERG current change (%, negative = inhibition) at 1uM” value was 15.3%. Consider `CCOC(=O)C1=C(COC(=O)/C=C/c2cccc(OC)c2OC)NC(=O)NC1C` (stereo not drawn), for which the “hERG current change (%, negative = inhibition) at 1uM” value came out at 14%.

Consider `COc1ccc(CNC(=O)C2CC(=O)N(C3CCCCC3)C2)cc1` (stereo not drawn), for which the “hERG current change (%, negative = inhibition) at 1uM” value was 7.44%. Under `CCOc1ccccc1NC(=O)CSc1nnc(-c2ccccc2Cl)n1Cc1ccco1` stands 2.2%; under `O=C(Cc1cccs1)NCc1ccco1`, 8.47%. Regarding `COc1ccc(Cl)cc1NC(=O)c1ccoc1C`, the “hERG current change (%, negative = inhibition) at 1uM” value was found to be 4.28%.

Consider `O=S1(=O)C=C(SCCN2CCCCC2)c2ccccc21`, for which the “hERG current change (%, negative = inhibition) at 1uM” value is given as -6.62%.

Take `CN(CC(=O)Nc1ccc(Cl)c(C(F)(F)F)c1)C(=O)c1ccc2c(c1)NC(=O)CS2`: the “hERG current change (%, negative = inhibition) at 1uM” value is listed as 0.635%. Under `COc1cc(C(=O)OCC(=O)N(C)Cc2ccccc2)cc(OC)c1OC` stands 12.5%; under `COc1ccccc1Cc1nc(-c2ccncc2)no1`, 10.3%; under `N#Cc1ccccc1NC(=O)COc1c(Br)cc(Br)c2cccnc12`, 11.5%.

Turning to `COc1cccc(-c2ocnc2C(=O)Nc2ccc3c(c2)CCC3)c1`, the “hERG current change (%, negative = inhibition) at 1uM” value was 6.33%. Take `CCC(NC(=O)c1ccc([N+](=O)[O-])cc1[N+](=O)[O-])c1ccccc1` (stereo not drawn): the “hERG current change (%, negative = inhibition) at 1uM” value is on record as -14.5%. `O=C(O)c1cc(S(=O)(=O)Nc2cccc3ccccc23)c(Cl)cc1Cl`: the “hERG current change (%, negative = inhibition) at 1uM” value is 22.6%.

For the molecule `Cc1ccc(CNC(=O)CCc2ccc(S(=O)(=O)NC3CCCCC3)cc2)cc1`, the “hERG current change (%, negative = inhibition) at 1uM” value was determined as 8.95%. In the case of `O=C(CSc1nnnn1-c1ccc2c(c1)OCCO2)OC1CCCCC1`, the “hERG current change (%, negative = inhibition) at 1uM” value turned out to be 6.23%. For `COc1cc(OC)cc(C(=O)N/N=C2/SCC(=O)N2Cc2ccco2)c1`, the “hERG current change (%, negative = inhibition) at 1uM” value is given as 1.7%. Under `CCCCNc1c2c(nc3c(-c4ccccc4)c(C)nn13)CCC2` stands 4.47%; under `CCOc1ccc(NC(=O)c2sc3nc(C)nc(N4CCOCC4)c3c2C)cc1`, -5.28%. For `Cc1sc2nc(CSc3ccccc3)nc(N3CCN(C)CC3)c2c1C`, the “hERG current change (%, negative = inhibition) at 1uM” value was -4.21%.

On to `CCOc1ccc(N(CC(=O)NC2CCCCC2)S(=O)(=O)c2c(C)noc2C)cc1`, for which the “hERG current change (%, negative = inhibition) at 1uM” value stood at 4.49%. For `CCOc1c2c(nc3ccc(Cl)cc13)CCC2`, the “hERG current change (%, negative = inhibition) at 1uM” value was determined as 9.86%. As to `C[N+](C)(C)CCN(Cc1ccc(Cl)cc1)c1ccccn1.[I-]`, the “hERG current change (%, negative = inhibition) at 1uM” value was 6.09%. In the case of `CCCCNC(=O)C12CCC(C)(C(=O)C1Br)C2(C)C` (stereo not drawn), the “hERG current change (%, negative = inhibition) at 1uM” value was 4.09%. As to `O=C(c1cccc(Br)c1)N1CCCC1`, the “hERG current change (%, negative = inhibition) at 1uM” value is 8.55%. In the case of `CCOC(=O)c1[nH]c2cc3c(cc2c1NC(=O)CN1CCC(C)CC1)OCO3`, the “hERG current change (%, negative = inhibition) at 1uM” value was 2.44%.

Consider `CCC(=O)c1cn([C@H](CCC(OC)OC)CC(=O)OC(C)(C)C)cc1CC`, for which the “hERG current change (%, negative = inhibition) at 1uM” value is on record as 12.6%.
